Assay results: ChEMBL document CHEMBL4888484, “Replenishing the malaria drug discovery pipeline: Screening and hit evaluation of the MMV Hit Generation Library 1 (HGL1) against asexual blood stage Plasmodium falciparum ,using a nano luciferase reporter read-out” (2022)
Among all 150,000 compounds or so, about 540 (0.36%) showed an effect of 50% or more. Some of the results follow.

The compounds below were run on Plasmodium falciparum (assay: Primary screen in NF54 nanoGlo assay, in single point, at 2uM, 72h; a lower Z score goes with more inhibition). Settings: timepoint 72 hour.
Assay type: functional, Erythrocyte
C[C@](C#N)(NC(=O)Cn1cc(C#N)cn1)C1CC1 was tested, and the “% Inhibition” value was -2% and the Z score was 0.4.
With Cc1cccc(OCC(=O)Nc2nc3c(s2)C(=O)NCCC3)c1 the “% Inhibition” value was -4% and the Z score was 0.8.
With N#Cc1ccc(CN2CCC(N3CCC[C@H](C(=O)N4CCCC4)C3)CC2)cc1 the “% Inhibition” value was -17% and the Z score was 2.2.
In the case of C[C@@H](c1ccccc1)n1ccc(NCc2ccncc2)n1, the “% Inhibition” value is reported as -9% and the Z score is reported as 1.46.
With O=C(CC[C@H]1CCCN(Cc2sc3ccccc3c2Cl)C1)N1CCCC1 the “% Inhibition” value was -20% and the Z score was 2.8.
With O=C(NCc1ccc(F)cc1)c1cn2c(n1)CCCC2 the “% Inhibition” value was -9% and the Z score was 1.41.
For O=C(CN1CCC[C@H]1c1nc2ccccc2s1)Nc1ccccc1Cc1ccccc1, the “% Inhibition” value was 28% and the Z score was -3.23.
In the case of Cc1noc(C)c1S(=O)(=O)N1CCC[C@H]1C(=O)NC(c1ccccc1)c1ccccc1, the “% Inhibition” value is reported as -16% and the Z score is reported as 2.31.
For Cc1c(S(=O)(=O)N2CCC[C@H]2c2nc(N(C)C)no2)c2ccccc2n1C, the “% Inhibition” value was -5% and the Z score was 1.02.
In the case of COCCOCC(=O)N1C[C@@H]2CC[C@H]1CN(Cc1ccccc1)C2, the “% Inhibition” value is reported as -2% and the Z score is reported as 0.25.
With C[C@H]1CCN(C(=O)c2ccc(S(C)(=O)=O)cc2)[C@@H](C)C1 the “% Inhibition” value was -13% and the Z score was 1.57.
With COc1ccccc1N1CCN(C(=O)c2noc(-c3ccc(C)cc3)n2)CC1 the “% Inhibition” value was -13% and the Z score was 1.19.
With Cn1cc(CNC(=O)[C@H]2CCC(=O)N(C3CC3)[C@@H]2c2ccncc2)cn1 the “% Inhibition” value was -13% and the Z score was 1.81.
For Cc1nc2cc(NC(=O)c3ccccc3OC[C@H]3CCCO3)ccc2o1, the “% Inhibition” value was -14% and the Z score was 2.18.
O=C1C[C@@H](C(=O)N2CCCCCC2)Cc2nc(NC(=O)C3CCC3)sc21 was tested, and the “% Inhibition” value was -12% and the Z score was 1.33.
For CCCCNC(=O)c1cccnc1Oc1cccc(NS(=O)(=O)c2ccc(F)cc2)c1, the “% Inhibition” value was 3% and the Z score was -0.49.
For CC(C)c1noc(CNC(=O)CCN2CCCCCCC2)n1, the “% Inhibition” value was 0% and the Z score was -0.02.
In the case of CC1(CO)CC(O)CN1C(=O)Nc1ccc2c(c1)OCCO2 (stereo not drawn), the “% Inhibition” value is reported as -9% and the Z score is reported as 1.71.
With C[C@]1(F)CCCN(CC(=O)N2CCC2)C1 the “% Inhibition” value was -3% and the Z score was 0.35.
In the case of CCCC1CC(C(=O)N2CCC(n3cnc(C(N)=O)c3N)CC2)CCO1 (stereo not drawn), the “% Inhibition” value is reported as -16% and the Z score is reported as 1.76.
For Cc1ncsc1CNC(=O)[C@H]1CCN(c2ccccc2)C1, the “% Inhibition” value was -6% and the Z score was 1.12.
With C#Cc1cccnc1N1CC(C)OC(C2CC2)C1 (stereo not drawn) the “% Inhibition” value was -4% and the Z score was 0.52.
With O=C(C1CCCCN1)N1CCCC(C(F)(F)F)C1 (stereo not drawn) the “% Inhibition” value was -2% and the Z score was 0.26.
CS(=O)(=O)N1CCC(C(=O)N(Cc2ccccc2)c2ccccc2)CC1 was tested, and the “% Inhibition” value was -8% and the Z score was 1.24.
In the case of Cn1ccc([C@H]2CCCN(S(=O)(=O)c3ccc(F)c(Cl)c3)C2)n1, the “% Inhibition” value is reported as -14% and the Z score is reported as 1.59.
CC(C)CCN(Cc1cccc(C#N)c1)Cc1cccn1Cc1ccc(F)cc1 was tested, and the “% Inhibition” value was -5% and the Z score was 0.55.
For O=C(Nc1cccc(-c2cc3ccccc3[nH]2)c1)NC1CCCC1, the “% Inhibition” value was 2% and the Z score was -0.22.
Cc1cc(CS(=O)(=O)[C@@H](C)c2nc(C)no2)on1 was tested, and the “% Inhibition” value was 1% and the Z score was -0.12.
With CCN(CC)c1nc2cc(C(=O)NC3CC3)ccc2c(=O)n1Cc1ccc(C)cc1 the “% Inhibition” value was -8% and the Z score was 1.56.
COc1cccc(OC2CN(Cc3ccc(F)cc3Cl)C2)c1 was tested, and the “% Inhibition” value was -12% and the Z score was 2.34.
c1cc(N2CC3(CCOCC3)C2)nc(-c2nccs2)n1 was tested, and the “% Inhibition” value was 5% and the Z score was -0.9.
In the case of Cc1cnn([C@@H](C)C2CC2)c1NC(=O)c1scc2c1OCCO2, the “% Inhibition” value is reported as -1% and the Z score is reported as 0.2.
For Nc1cc(Cl)ccc1C(=O)OCc1nnnn1-c1ccccc1, the “% Inhibition” value was 10% and the Z score was -1.33.
With C[C@@H](CC(=O)NCc1ccc(Cl)cc1)Cc1nnc2c(=O)n(-c3cccc(F)c3)ccn12 the “% Inhibition” value was -2% and the Z score was 0.32.
With CC1CN(CCOC2CCN(C(=O)CCCn3cccn3)CC2)CC(C)O1 (stereo not drawn) the “% Inhibition” value was -8% and the Z score was 0.91.
Cc1c(Br)cc(C#N)c(=O)n1Cc1ccn(C(C)C)n1 was tested, and the “% Inhibition” value was -16% and the Z score was 3.45.
With CCn1cc(-c2ccc(C(=O)NCCc3ccc4c(c3)OCO4)cc2)c(C)n1 the “% Inhibition” value was -9% and the Z score was 0.97.
For CC(C)NC(=O)N1CC(n2ccnn2)C1, the “% Inhibition” value was -2% and the Z score was 0.28.
With CC(C)(C)c1ncc(C(=O)OCCC(F)(F)F)s1 the “% Inhibition” value was -16% and the Z score was 2.45.
COCCNC(=O)N[C@@H](c1ccsc1)c1cccs1 was tested, and the “% Inhibition” value was -6% and the Z score was 1.04.
In the case of CN(C)S(=O)(=O)N1C[C@H]2CC[C@@H](C1)N(C(=O)CCc1ccncc1)C2, the “% Inhibition” value is reported as -27% and the Z score is reported as 2.87.
COc1ccc(-c2ncn[nH]2)c(-n2nc(C)cc2C)c1 was tested, and the “% Inhibition” value was 9% and the Z score was -1.33.
With C[C@@H](CNC(=O)c1cc2nccc(C(F)(F)F)n2n1)N(C)C1CC1 the “% Inhibition” value was 29% and the Z score was -3.31.
For CCc1ccc(CNCc2ccc(N(C)CC)nc2)s1, the “% Inhibition” value was -13% and the Z score was 1.7.
For Cc1cc[nH]c1C(=O)Nc1ccnn1[C@H]1CCN(Cc2ccccc2)C1, the “% Inhibition” value was -11% and the Z score was 0.91.
In the case of NC(=O)Cc1cccc(OCCc2ccc3c(c2)CCO3)c1, the “% Inhibition” value is reported as -7% and the Z score is reported as 1.22.
In the case of CC(C)C(=O)Nc1cc(C(=O)OCc2cnn(C)c2)c(F)cc1F, the “% Inhibition” value is reported as -1% and the Z score is reported as 0.12.
For COC(C)c1nsc(NC(CN)C2CCCCC2)n1 (stereo not drawn), the “% Inhibition” value was 1% and the Z score was -0.21.
For Cc1ccc(Cn2nccc2N[C@H]2CCCOC2)s1, the “% Inhibition” value was -2% and the Z score was 0.22.
In the case of CNc1cc(N2CCn3nc(CNc4cnccn4)cc3C2)nc(N)n1, the “% Inhibition” value is reported as -12% and the Z score is reported as 1.17.
COCCN1C(=O)[C@@H]2CC[C@H]1CN(Cc1nc(-c3ccc(C)cc3)no1)C2 was tested, and the “% Inhibition” value was -5% and the Z score was 0.94.
In the case of CC(C)(O)CNC(=O)Nc1ccccc1N1CC2CCC1C2 (stereo not drawn), the “% Inhibition” value is reported as -7% and the Z score is reported as 0.9.
In the case of COc1ccc(S(=O)(=O)N(Cc2c(C)nn(-c3ccccc3)c2Oc2ccc(F)cc2F)CC2CC2)cc1, the “% Inhibition” value is reported as -8% and the Z score is reported as 1.29.
Cc1ccc2cc(CN3CCC[C@H](N)CC3)c(N3CCOCC3)nc2c1 was tested, and the “% Inhibition” value was 7% and the Z score was -1.11.
